# Results as given in the supplement of paper PMC8728848.
# The list shows a part of the results.
# B1: CML1 (Coprinopsis cinerea) (protein)
# chain: MAIFHTGSELFIITRGPGKLTLLTWGGLNNLRSVIGAIPTENTGVTKWAVSFSHNYTRFSFIWEGQGEACYQIGNGLTRSPVGRSWSSSSTIHWGSSTVITEDVTSVVPGAVNRDKVTTAYALPDNL
# How the values were obtained:
# Assay in all cases: glycan array binding signal (z-score within array); higher = stronger binding
# Conditions in all cases: glycan notation: IUPAC condensed, linker removed
# [1] = target: Neu5Ac(a2-6)GlcNAc(b1-4)GlcNAc
# Summary of the method: (§1)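 Negative Z-scores can be read as non-binding. The Z-score is calculated within each array and then averaged across arrays of one protein sequence at different concentrations or buffers and across linkers. Arrays, 3228 in all, were curated from the Consortium for Functional Glycomics database and kept only where the protein sequence was available.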
# [2] = target: Neu5Ac(a2-6)GlcNAc(b1-4)GlcNAc(b1-4)GlcNAc
# Summary of the method: as §1
# Neu5Ac(a2-8)Neu5Ac = target: Neu5Ac(a2-8)Neu5Ac
# Summary of the method: as §1
# [3] = target: Neu5Ac(a2-8)Neu5Ac(a2-3)Gal(b1-3)GalNAc(b1-4)[Neu5Ac(a2-3)]Gal(b1-4)Glc
# Summary of the method: as §1
# [4] = target: Neu5Ac(a2-8)Neu5Ac(a2-3)Gal(b1-3)GalNAc(b1-4)[Neu5Ac(a2-8)Neu5Ac(a2-3)]Gal(b1-4)Glc
# Summary of the method: as §1
# [5] = target: Neu5Ac(a2-8)Neu5Ac(a2-3)Gal(b1-4)Glc
# Summary of the method: as §1
# [6] = target: Neu5Ac(a2-8)Neu5Ac(a2-3)Gal(b1-4)GlcNAc
# Summary of the method: as §1
# [7] = target: Neu5Ac(a2-8)Neu5Ac(a2-3)[Gal(b1-3)GalNAc(b1-4)]Gal(b1-4)Glc
# Summary of the method: as §1
# [8] = target: Neu5Ac(a2-8)Neu5Ac(a2-3)[GalNAc(b1-4)]Gal(b1-4)Glc
# Summary of the method: as §1
# [9] = target: Neu5Ac(a2-8)Neu5Ac(a2-8)Neu5Ac
# Summary of the method: as §1
# [10] = target: Neu5Ac(a2-8)Neu5Ac(a2-8)Neu5Ac(a2-3)Gal(b1-4)Glc
# Summary of the method: as §1
# [11] = target: Neu5Ac(a2-8)Neu5Ac(a2-8)Neu5Ac(a2-3)[Gal(b1-3)GalNAc(b1-4)]Gal(b1-4)Glc
# Summary of the method: as §1
# [12] = target: Neu5Ac(a2-8)Neu5Ac(a2-8)Neu5Ac(a2-3)[GalNAc(b1-4)]Gal(b1-4)Glc
# Summary of the method: as §1
# [13] = target: Neu5Ac(a2-8)Neu5Ac(a2-8)Neu5Ac(a2-8)Neu5Ac(a2-3)[GalNAc(b1-4)]Gal(b1-4)Glc
# Summary of the method: as §1
# [14] = target: Neu5Ac(a2-8)Neu5Gc(a2-3)Gal(b1-4)GlcNAc
# Summary of the method: as §1
# [15] = target: Neu5Ac(b2-6)Gal(b1-4)GlcNAc
# Summary of the method: as §1
# Neu5Ac(b2-6)GalNAc = target: Neu5Ac(b2-6)GalNAc
# Summary of the method: as §1
# [16] = target: Neu5Ac9Ac(a2-3)Gal(b1-3)GlcNAc
# Summary of the method: as §1
# [17] = target: Neu5Ac9Ac(a2-3)Gal(b1-4)GlcNAc
# Summary of the method: as §1
# [18] = target: Neu5Ac9Ac(a2-6)Gal(b1-4)GlcNAc
# Summary of the method: as §1
# [19] = target: Neu5Gc(a2-3)Gal(b1-3)GlcNAc
# Summary of the method: as §1
# [20] = target: Neu5Gc(a2-3)Gal(b1-3)[Fuc(a1-4)]GlcNAc
# Summary of the method: as §1
# Neu5Gc(a2-3)Gal(b1-4)Glc = target: Neu5Gc(a2-3)Gal(b1-4)Glc
# Summary of the method: as §1
# [21] = target: Neu5Gc(a2-3)Gal(b1-4)GlcNAc
# Summary of the method: as §1
# [22] = target: Neu5Gc(a2-3)Gal(b1-4)GlcNAc(b1-3)Gal(b1-4)GlcNAc(b1-2)Man(a1-3)[Neu5Gc(a2-3)Gal(b1-4)GlcNAc(b1-3)Gal(b1-4)GlcNAc(b1-2)Man(a1-6)]Man(b1-4)GlcNAc(b1-4)GlcNAc
# Summary of the method: as §1
# [23] = target: Neu5Gc(a2-3)Gal(b1-4)[Fuc(a1-3)]GlcNAc
# Summary of the method: as §1
# [24] = target: Neu5Gc(a2-6)Gal(b1-4)GlcNAc
# Summary of the method: as §1
# Neu5Gc(a2-6)GalNAc = target: Neu5Gc(a2-6)GalNAc
# Summary of the method: as §1
# [25] = target: Neu5Gc(a2-8)Neu5Ac(a2-3)Gal(b1-4)GlcNAc
# Summary of the method: as §1
# [26] = target: Neu5Gc(a2-8)Neu5Gc(a2-3)Gal(b1-4)GlcNAc
# Summary of the method: as §1
# [27] = target: Neu5Gc(a2-8)Neu5Gc(a2-3)Gal(b1-4)GlcNAc(b1-3)Gal(b1-4)GlcNAc
# Summary of the method: as §1
# [28] = target: Neu5Gc(a2-8)Neu5Gc(a2-6)Gal(b1-4)GlcNAc
# Summary of the method: as §1
# [29] = target: Neu5Gc(b2-6)Gal(b1-4)GlcNAc
# Summary of the method: as §1
binder,measurement,setting,value
B1,glycan array binding signal (z-score),[1],-0.33
same,glycan array binding signal (z-score),[2],-0.334
same,glycan array binding signal (z-score),Neu5Ac(a2-8)Neu5Ac,-0.351
same,glycan array binding signal (z-score),[3],-0.299
same,glycan array binding signal (z-score),[4],-0.357
same,glycan array binding signal (z-score),[5],-0.36
same,glycan array binding signal (z-score),[6],-0.348
same,glycan array binding signal (z-score),[7],-0.323
same,glycan array binding signal (z-score),[8],-0.317
same,glycan array binding signal (z-score),[9],-0.327
same,glycan array binding signal (z-score),[10],-0.312
same,glycan array binding signal (z-score),[11],-0.31
same,glycan array binding signal (z-score),[12],-0.328
same,glycan array binding signal (z-score),[13],-0.35
same,glycan array binding signal (z-score),[14],-0.354
same,glycan array binding signal (z-score),[15],-0.353
same,glycan array binding signal (z-score),Neu5Ac(b2-6)GalNAc,-0.357
same,glycan array binding signal (z-score),[16],-0.361
same,glycan array binding signal (z-score),[17],-0.348
same,glycan array binding signal (z-score),[18],-0.315
same,glycan array binding signal (z-score),[19],-0.353
same,glycan array binding signal (z-score),[20],3.04
same,glycan array binding signal (z-score),Neu5Gc(a2-3)Gal(b1-4)Glc,-0.348
same,glycan array binding signal (z-score),[21],-0.323
same,glycan array binding signal (z-score),[22],-0.336
same,glycan array binding signal (z-score),[23],1.47
same,glycan array binding signal (z-score),[24],-0.33
same,glycan array binding signal (z-score),Neu5Gc(a2-6)GalNAc,-0.348
same,glycan array binding signal (z-score),[25],-0.346
same,glycan array binding signal (z-score),[26],-0.334
same,glycan array binding signal (z-score),[27],-0.315
same,glycan array binding signal (z-score),[28],-0.341
same,glycan array binding signal (z-score),[29],-0.339
